# Data: PMC4336329 (PLoS ONE, 2015)
# Out of some 310,000 compounds screened, about 14,000 (4.5%) showed an effect of 50% or more. The effect is printed as a negative number. The list shows a part of the results.
# Biological target: human ether-à-go-go-related gene (hERG) potassium channel (human, UniProt Q12809)
# Test: primary screen, population patch clamp on CHO cells stably expressing hERG
# 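Further: peak tail current of the secondary pulse compared with the same well before compound.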
# human ether-à-go-go-related gene (hERG) potassium channel, sequence (Q12809 whole entry, looked up): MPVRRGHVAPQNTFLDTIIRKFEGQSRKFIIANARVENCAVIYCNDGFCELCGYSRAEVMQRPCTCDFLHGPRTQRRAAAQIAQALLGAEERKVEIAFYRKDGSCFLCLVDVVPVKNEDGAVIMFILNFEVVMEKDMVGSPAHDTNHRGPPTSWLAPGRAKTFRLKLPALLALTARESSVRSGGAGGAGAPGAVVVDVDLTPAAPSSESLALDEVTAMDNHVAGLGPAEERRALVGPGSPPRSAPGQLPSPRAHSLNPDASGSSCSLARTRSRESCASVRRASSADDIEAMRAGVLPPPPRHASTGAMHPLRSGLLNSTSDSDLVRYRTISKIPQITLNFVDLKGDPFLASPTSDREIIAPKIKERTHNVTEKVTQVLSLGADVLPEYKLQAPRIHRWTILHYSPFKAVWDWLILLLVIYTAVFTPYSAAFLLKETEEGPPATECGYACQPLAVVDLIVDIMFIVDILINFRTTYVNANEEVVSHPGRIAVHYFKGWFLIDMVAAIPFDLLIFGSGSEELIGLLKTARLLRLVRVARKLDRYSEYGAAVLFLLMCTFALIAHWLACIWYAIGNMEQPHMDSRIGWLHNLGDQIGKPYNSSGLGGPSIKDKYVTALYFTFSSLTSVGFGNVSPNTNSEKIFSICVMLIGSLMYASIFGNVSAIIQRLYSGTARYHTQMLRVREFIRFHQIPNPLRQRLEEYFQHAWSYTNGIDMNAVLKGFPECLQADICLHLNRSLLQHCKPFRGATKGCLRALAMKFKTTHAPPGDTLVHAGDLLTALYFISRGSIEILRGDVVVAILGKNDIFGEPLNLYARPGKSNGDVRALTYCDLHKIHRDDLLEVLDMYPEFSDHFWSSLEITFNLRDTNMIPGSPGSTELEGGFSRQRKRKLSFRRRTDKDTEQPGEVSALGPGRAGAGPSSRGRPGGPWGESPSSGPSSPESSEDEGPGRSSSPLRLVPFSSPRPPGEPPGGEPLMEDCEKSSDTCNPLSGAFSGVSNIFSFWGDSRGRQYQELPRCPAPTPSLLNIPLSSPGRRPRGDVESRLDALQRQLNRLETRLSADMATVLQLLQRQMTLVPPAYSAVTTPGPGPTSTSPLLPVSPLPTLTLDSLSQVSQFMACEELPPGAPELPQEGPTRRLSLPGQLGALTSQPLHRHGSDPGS
row,SMILES,"hERG current change (%, negative = inhibition) at 10uM"
1,CN(C)CC(O)CN(c1ccccc1)c1ccccc1 (stereo not drawn),-54%
2,CC(c1ccccc1)n1cc(C(=O)NCCN2CCOCC2)nn1 (stereo not drawn),1.56%
3,CCc1cc2c(=O)n(-c3ccccc3)c(SCC(N)=O)nc2s1,8.94%
4,Cc1cc(C(=O)Nc2cccc3ccccc23)co1,8.25%
5,CC(C)N1CCN(Cc2ccccc2-c2ccco2)CC1CCO (stereo not drawn),-35.3%
6,Nc1ccc2c(c1)N=[N+]([O-])c1cc(N)ccc1C2,16.6%
7,O=C(Nc1ccc(F)cc1)c1ccc2snnc2c1,-16.9%
8,Cc1cc(C)nc(-n2nc(C)cc2Nc2ccccc2)n1,-17%
9,Cc1ccc(S(=O)(=O)N2CCN(C(=O)CSc3nc4ccccc4o3)C2)cc1,-17.2%
10,O=C(/C=C\c1ccco1)NC(=S)Nc1ccccc1O,7.66%
11,COc1ccc(NC(=O)c2nc(SC)ncc2Cl)cc1,-17.3%
12,CCCOc1ccc(C(=O)Nc2nc(C)c(Cc3ccc4c(c3)OCO4)s2)cc1,11.3%
13,COc1cccc(NC(=S)/C(=C(\[O-])c2ccc(OC(F)F)cc2)[n+]2ccccc2)c1,0.529%
14,O=c1c2ccc(Cl)cc2[nH]c(=S)n1Cc1cccnc1,6.96%
15,COc1cccc(C2=NN(S(C)(=O)=O)C(c3cccs3)C2)c1 (stereo not drawn),-3.8%
16,O=C(c1cc(F)c(F)cc1Cl)N1CCCc2ccccc21,-0.729%
17,Cc1cc(SCC(=O)NCCN2C(=O)CSC2=O)nc2c(C)cccc12,0.207%
18,Cn1c(CNC(=O)c2cccs2)n[nH]c1=S,18.1%
19,CC(C)(O)/C=C1/Oc2ccccc2C1N1CCCCC1 (stereo not drawn),-4.32%
20,COc1ccccc1CNC(=O)CSc1ccc(C(=O)Nc2ccccc2OC)cc1[N+](=O)[O-],1.51%
21,CC(C)=C1C2CCC1C1C(=O)N(c3nccs3)C(=O)C21 (stereo not drawn),33%
22,Cc1ccc(C(=O)NNC(=O)c2cccc(S(=O)(=O)N3CCN(c4ccccc4)CC3)c2)cc1,-25.4%
23,COc1cc(NC(=O)c2ccc3c(c2)OCO3)c2ncccc2c1,12.9%

row,SMILES,"hERG current change (%, negative = inhibition) at 10uM"
1,COC(=O)c1ccccc1NC(=O)Cn1cnc2cc(C)c(C)cc21,-21.2%
2,CCCCC(=O)Nc1ccccc1C(=O)N1CCOCC1,2.22%
3,C(#Cc1ccc(C#CCN2CCOCC2)cc1)CN1CCOCC1,-4.47%
4,Oc1c(N=NC(=S)Nc2ccccc2F)c2ccccc2n1Cc1ccccc1F,11%
5,Cc1ccc(N2CC(C(=O)Nc3nnc(SCc4ccccn4)s3)CC2=O)cc1 (stereo not drawn),-27.5%
6,CO/N=C\Cc1oc(=O)c(NC(=O)c2ccccc2)cc1C(=O)OC,0.945%
7,Cc1ccc(Cn2cccc(NC(=O)CCC3CCCC3)c2=O)cc1,1.57%
8,Cc1cc(C(=O)Nc2cccc(O)c2)c(C)o1,7.6%
9,CC1C2C(c3ccccc3)N(C)C(=O)N(C)C2N(C)C(=O)N1C (stereo not drawn),12.9%
10,CCN(CC)S(=O)(=O)c1ccc(C(=O)NNC2=NS(=O)(=O)c3ccccc32)cc1,18.3%
11,C=CCn1c(SCC(=O)N2CCCCCC2)nc2ccccc2c1=O,-59.2%
12,CC(C)(C)NC(=O)CSc1nnc(NC(=O)CCc2ccccc2)s1,5.82%
13,Cc1ccc(Nc2nc(CSc3nnc(-c4ccncc4)n3C)cs2)cc1,-35.1%
14,O=C(CC(=O)NC1CCCCC1)N/N=C/c1cccc2ccccc12,17.5%
15,c1ccc2c(c1)nc(N1CCOCC1)c1nnnn12,-4.42%
16,O=S(=O)(NCCc1ccccc1)c1cccs1,7.7%
17,COc1ccc(NC(=O)/C(C#N)=C\c2cc(C)n(-c3ccc4c(c3)OCO4)c2C)cc1,3.77%
18,CC[N+](CC)(CCO)CCCN1C(=O)C2CC=C(Cl)CC2C1=O.[Br-] (stereo not drawn),7.9%
19,O=C(/C=C/c1ccco1)N(Cc1ccccc1)C1CCS(=O)(=O)C1 (stereo not drawn),-29.5%
20,CC1(C)CC(=O)c2c(noc2-c2ccccc2)C1,7.35%
21,Cc1cccc(C(=O)OCC(=O)NN2C(=O)NC3(CCC(C)CC3)C2=O)c1O (stereo not drawn),-2.36%
22,Cc1ccc(C(=O)N2c3ccccc3OCC2C)cc1 (stereo not drawn),3.36%
23,COc1ccc(OC)c(S(=O)(=O)N2CCC(C(=O)Nc3ccc(C)c(C)c3)CC2)c1,-9.98%

row,SMILES,"hERG current change (%, negative = inhibition) at 10uM"
1,Cc1ccc(C2=[N+]([O-])C(C)(C)CC2)cc1,14.9%
2,CCC1CN(C)CCC1(OC(C)=O)c1ccccc1.Cl (stereo not drawn),12.1%
3,O=C(COC(=O)c1ccc(S(=O)(=O)N2CCCC2)cc1)Nc1ccc(N2CCOCC2)cc1,22.2%
4,COC(=O)c1ccc(N)cc1O,22%
5,CN1CCN(C(=O)c2ccccc2NC(=O)c2cccc(Cl)c2)CC1,-10.5%
6,O=C1C(Cl)=C(NCCCN2CCOCC2)C(=O)N1CCc1ccccc1,-32.6%
7,COc1cccc(OC)c1C(=O)NC(C)C12CC3CC(CC(C3)C1)C2 (stereo not drawn),3.99%
8,Cc1cc(N2CCCC(C(=O)Nc3cccc(Cl)c3)C2)n2ncnc2n1 (stereo not drawn),-38%
9,CCc1ccc(OC)c(S(=O)(=O)NCc2cccs2)c1,-2.86%
10,Cc1ccc(NC(=O)C2(c3ccccc3)CCOCC2)cc1,9.1%
11,Cc1nn(-c2cc(C)c3ccccc3n2)c2c1CCC2,2.72%
12,CCN(CC)c1ccc(NC(=O)COC(=O)CCC(=O)c2cccs2)cc1,5.04%
13,O=C(Nc1cc(Br)ccc1O)C1CC(c2c(F)cccc2Cl)=NO1 (stereo not drawn),20.3%
14,COc1cc(Nc2ncnc(N)n2)cc(OC)c1,9.91%
15,COC(=O)c1ccc(N/C=C/C(=O)c2ccccc2)cc1,22.9%
16,CCOC(=O)c1c(NC(=O)C2c3ccccc3Oc3ccccc32)sc(C(=O)N(CC)CC)c1C,9.09%
17,CC1C(=O)NN=C1C(=O)N/N=C/c1cccs1 (stereo not drawn),17.3%
18,O=C(O)COc1ccc(/C=N/NC(=O)COc2nsnc2N2CCOCC2)cc1,12%
19,CCOc1cc2[nH]c(=S)n(CCCC(=O)NCc3ccco3)c(=O)c2cc1OCC,-7.08%
20,CSc1ccccc1OCc1cc(C(=O)N2CCC[C@H]2C(N)=O)no1,5.26%
21,FC(F)(F)c1cc(Oc2ccccc2)nc(-c2ccccn2)n1,-11.6%
22,CCN(CC)CCNC(=O)c1cc2ccccc2nc1Cl,43.4%
23,Cc1cc(C(=O)N/N=C/c2sc(N3CCOCC3)nc2-c2ccccc2)c(C)o1,8.26%

row,SMILES,"hERG current change (%, negative = inhibition) at 10uM"
1,COc1ccc(C(=O)Nn2c(C3CCC3)nc3ccccc3c2=O)c(OC)c1,-4.75%
2,COc1ccc(CCNC(=O)c2cc(Cl)nc3ccccc23)cc1,11.5%
3,COc1ccc(S(=O)(=O)N2CCCN(Cc3cccc(F)c3)CC2)cc1,-44.6%
4,COc1ccc(C(=O)NC2CCCc3c2cnn3-c2ccccc2F)cc1OC (stereo not drawn),2.09%
5,CC1(c2nnc(Cc3ccccc3)o2)CC(c2ccccc2[N+](=O)[O-])=NO1 (stereo not drawn),-27%
6,CC1CCC(NC(=O)CCS(=O)(=O)c2ccc3c(c2)CC(C)N3C(=O)C2CC2)CC1 (stereo not drawn),7.85%
7,COc1ccc2oc(C)c(C(=O)Cn3ccnc3)c2c1,-39.5%
8,COc1ccc(CCN(Cc2cccs2)S(=O)(=O)c2ccc(S(=O)(=O)N(C)C3CCCCC3)cc2)cc1OC,2.56%
9,COc1ccc(-c2cc(C(=O)N3CCN(Cc4ccc5c(c4)OCO5)CC3)on2)cc1OC,2.8%
10,CCCN(CC(=O)Nc1ccccc1C)C(=O)COC(=O)CSc1ccc([N+](=O)[O-])cc1,-43.3%
11,CC(C)c1ccc(NC(=O)C(c2ccccc2)N2CCC3(CC2)OCCO3)cc1 (stereo not drawn),-43.3%
12,CC(=O)c1cccc(S(=O)(=O)N2CCCC(c3nc4c(nnn4Cc4ccc(C)cc4)c(=O)[nH]3)C2)c1 (stereo not drawn),15.1%
13,COCCNC(=O)Cn1cc(S(=O)(=O)N2CCN(c3ccccc3F)CC2)c2ccccc2c1=O,-2.76%
14,NC(=O)C1CCN(C(=O)C23CC4CC(CC(C4)C2)C3)CC1,10.5%
15,CCc1ccc(C(C)NC(=S)NCc2ccc(F)cc2)cc1 (stereo not drawn),12.4%
16,O=C1OC(Oc2ccccc2)(c2ccccc2)c2ccccc21 (stereo not drawn),-16.2%
17,Cc1nnc(SCCN2CCOCC2)n1-c1cccc(Cl)c1.O=C(O)C(=O)O,-4.95%
18,O=C(Nc1nc(-c2cccs2)c(C(=O)C(F)(F)F)s1)c1ccccc1,-2.72%
19,CC(C)(C)OC(=O)N[C@@H](Cc1ccccc1)C(=O)N[C@@H](CO)[C@H](O)[C@@H]1C[C@@H]1C(=O)N1CCCC1,22.1%
20,C=CCNC(=O)C1CCC(=O)N1S(=O)(=O)c1ccc(C)cc1 (stereo not drawn),20.5%
21,CCc1ccc(-c2nc(CSCC(=O)NCCCN3CCCC3=O)c(C)o2)cc1,-25.4%
